Measured values taken from PubChem BioAssay AID624417 (National Center for Advancing Translational Sciences (NCATS), 2012).
The campaign covered roughly 410,000 compounds. About 6,400 (1.6%) were called active. Inconclusive means that the source gave no clear call. Such entries were picked first, then a sample of the others. The call rests on the fitted dose curve; in most records, active means well fitted inhibition curve with a large enough effect; inconclusive means small, poorly fitted or top-dose-only effect; inactive means no such curve, though single readings can be large or run the other way. No potency is given beside an inconclusive call; the fits are too rough.

Each compound was assayed against Glucagon-like peptide 1 receptor (Homo sapiens) (UniProt P43220) (assay: qHTS of GLP-1 Receptor Inverse Agonists (Inhibition Mode)). Conditions: HEK293 GLP-1R CRE-luciferase, luminescence, 24 h, GLP-1R form is constitutively active; activity change, negative = inhibition: at 38.3 µM (top of the series) unless noted.
Summary of the method: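 Inverse agonism was detected as reduced cAMP-driven luciferase luminescence after 24 h compound treatment. The cells were HEK293 clones expressing constitutively active human GLP-1R with the reporter. Reporter-only and GPR119 cell lines served as counterscreen controls.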
Further: nearly all actives have a fitted effect of over 55% in size.
On the % scale 0 is the no-effect control and ±100 the full control effect; potency means the concentration at half of the fitted maximal effect; tags describe the fitted curve by direction and shape.

Chain of UniProt P43220 (P43220 whole entry, looked up): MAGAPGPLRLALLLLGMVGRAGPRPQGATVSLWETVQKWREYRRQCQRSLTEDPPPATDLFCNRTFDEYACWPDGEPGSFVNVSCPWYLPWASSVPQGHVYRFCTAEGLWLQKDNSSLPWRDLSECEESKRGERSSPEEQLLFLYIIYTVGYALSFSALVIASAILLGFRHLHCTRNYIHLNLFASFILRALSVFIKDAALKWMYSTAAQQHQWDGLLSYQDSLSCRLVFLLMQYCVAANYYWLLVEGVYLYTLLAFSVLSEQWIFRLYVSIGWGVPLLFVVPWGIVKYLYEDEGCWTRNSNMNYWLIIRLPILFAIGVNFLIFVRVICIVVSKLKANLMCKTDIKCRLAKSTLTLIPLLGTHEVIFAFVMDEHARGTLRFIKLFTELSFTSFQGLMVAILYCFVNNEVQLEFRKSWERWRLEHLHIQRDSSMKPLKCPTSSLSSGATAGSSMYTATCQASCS

Row | Structure (SMILES) | Potency | activity change, negative = inhibition
1 | FC(F)(F)c1cccc(N2CCN(C(=S)NCC3CCCO3)CC2)c1 (stereo unspecified) | inconclusive [inhibitor, single point] | 
2 | Cc1cccc(N(C)C(=O)CSc2nc3ncccc3o2)c1 |  | inactive: -10.9%
3 | CCN1C(=O)/C(=C/C=C2\N(CC)c3cc(S(=O)(=O)N(C)C)ccc3N2c2ccccc2)SC1=S | inconclusive [inhibitor, full curve, poor fit] | 
4 | Cc1ccc2c(c1)cc1c(=O)n(CC(=O)N3CCCCC3)nc(C)n12 |  | inactive: -0.534%
5 | O=C(NCC1CCCO1)c1c[nH]c2ccc(S(=O)(=O)Nc3cccc(C(F)(F)F)c3)cc2c1=O (stereo unspecified) |  | inactive: 12.3%
6 | O=C(Cc1ccc(Cl)cc1)Nc1cc(S(=O)(=O)N2CCOCC2)ccc1N1CCCC1 | inconclusive [inhibitor, single point] | 
7 | Cc1ccc(C(O)CSc2nnc(-c3ccc4ccccc4c3)n2C)cc1 (stereo unspecified) | inconclusive [inhibitor, single point] | 
8 | CCc1ccc(CN2CCN(c3ncccn3)CC2)cc1 |  | inactive: -24.9%
9 | CC(C)(C)NC(=O)/C=C/c1ccc(C(F)(F)F)cc1 | inconclusive [inhibitor, single point] | 
10 | CN1/C(=C/C(=O)c2nc(S(C)(=O)=O)ncc2Cl)C(C)(C)c2ccccc21 | inconclusive [inhibitor, single point] | 
11 | O=C(Cn1c(-c2ccccc2Cl)nc2ccccc21)Nc1cccc(Cl)c1 |  | inactive: 4.95%
12 | Cc1c(Cl)cccc1NC(=O)Cn1cnc2nc3c(cc2c1=O)CCCC3 |  | inactive: 6.17%
13 | COc1ccc(N2CC(C(=O)Nc3ccc(N4CCOCC4)cc3)CC2=O)cc1 (stereo unspecified) |  | inactive: -8.28%
14 | Cc1cccc(N2C(=O)CC(Sc3nnc(C)s3)C2=O)c1 (stereo unspecified) |  | inactive: -14.4%
15 | O=C(C(Cc1ccccc1)n1cccc1)N1CCN(c2ccccc2)CC1 (stereo unspecified) | inconclusive [inhibitor, partial curve, poor fit] | 
16 | CCc1nc2ccc(C(=O)NCC3CCCCC3)cn2c1N(CCC(C)C)CCN(C)C | inconclusive [inhibitor, single point] | 
17 | CC/C(=N\OC(=O)c1ccc(OC(C)C)cc1)c1ccc(C)cc1 | inconclusive [inhibitor, single point] | 
18 | Cc1ccc(NC(=O)CS(=O)CC(=O)Nc2cnc3ccccc3c2)cc1Cl (stereo unspecified) | inconclusive [inhibitor, partial curve, poor fit] | 
19 | N#C/C(=C(/O)CSc1ccccn1)c1nc2ccccc2s1 |  | inactive: 7.87%
20 | S=C(NCC1COc2ccccc2O1)Nc1ccc(Br)cc1 (stereo unspecified) | inconclusive [inhibitor, single point] | 
21 | CC(C)(C)N(CC#CCC(O)(c1ccccc1)c1ccccc1)CCO | inconclusive [inhibitor, full curve, poor fit] | 

Row | Structure (SMILES) | Potency | activity change, negative = inhibition
22 | Cc1ccc(CN2CCc3nc(N4CCN(C)CC4)ncc3C2)s1 | inconclusive [inhibitor, partial curve, poor fit] | 
23 | CCCCCCCCOC(=O)c1ccc(N)cc1 | inconclusive [inhibitor, single point] | 
24 | CCCCCNC(=O)C(c1cc2ccccc2o1)n1c(=O)c(-c2cc3ccccc3[nH]2)nc2ccccc21 (stereo unspecified) | inconclusive [inhibitor, partial curve, poor fit] | 
25 | O=C(c1cc(-c2ccc3c(c2)OCO3)on1)N1CCCCC1 | inconclusive [inhibitor, partial curve, poor fit] | 
26 | CCC(C(=O)NCCCN(CC)Cc1ccccc1)n1nc(C)c2sc3ccccc3c2c1=O (stereo unspecified) | inconclusive [inhibitor, full curve, poor fit] | 
27 | CCOC(=O)C(=N/O)/C(C)=N/NC(=O)C(=O)Nc1cc(Cl)ccc1Cl |  | inactive: 8.16%
28 | COc1ccc(C2/C=C\CN(CC(C)C)CC(=O)N2Cc2cccc(F)c2)cc1 (stereo unspecified) | inconclusive [inhibitor, single point] | 
29 | COc1ccc(CCNC(=O)c2ccc(-c3cccc([N+](=O)[O-])c3)o2)cc1OC | inconclusive [inhibitor, single point] | 
30 | O=C1C2C(c3ccccc3)C=CC(c3ccccc3)C2C(=O)N1CCCO (stereo unspecified) | inconclusive [inhibitor, partial curve, poor fit] | 
31 | CN(CCN1CCOCC1)Cc1nc(-c2ccc(Cl)cc2)no1 | inconclusive [inhibitor, single point] | 
32 | O=C(CCc1c[nH]c2ccccc12)OCc1cccc(C(F)(F)F)c1 | inconclusive [inhibitor, partial curve, poor fit] | 
33 | COc1ccc(/C=N\NC(=O)c2ccccc2)cc1COc1ccccc1 | inconclusive [inhibitor, single point] | 
34 | COc1ccc(C(CNC(=O)CSc2ccc(Br)cc2C)N2CCOCC2)cc1 (stereo unspecified) | inconclusive [inhibitor, single point] | 
35 | COc1ccc(N2C(=O)CCC2(C#N)c2ccc(Br)cc2)cc1 (stereo unspecified) | inconclusive [inhibitor, single point] | 
36 | COc1ccc(C(CCNCc2ccc(N(C)C)cc2)C(C)C)cc1 (stereo unspecified) | inconclusive [inhibitor, partial curve, poor fit] | 
37 | O=[N+]([O-])c1cccc(SSc2cccc([N+](=O)[O-])c2)c1 | inconclusive [inhibitor, partial curve, poor fit] | 
38 | CN(C)Cc1c(O)ccc2occ(C(=O)c3ccccc3)c12 | inconclusive [inhibitor, full curve, poor fit] | 
39 | Cc1ccc(CNC(=O)CSc2nc(N3CCCCC3)nc(N3CCCCC3)n2)cc1 | inconclusive [inhibitor, full curve, poor fit] | 
40 | O=C(Nc1ccccc1Cl)c1cccc(NC(=O)c2cccs2)c1 | inconclusive [inhibitor, single point] | 
41 | C=CC[C@@H](CC(=O)N[C@H](CO)Cc1ccccc1)C(=O)N[C@@H](C)COC(=O)[C@@H](CC=C)Cc1ccc(F)cc1 | inconclusive [inhibitor, partial curve, poor fit] | 
